Assay results published in PubChem BioAssay AID1865 (National Center for Advancing Translational Sciences (NCATS), 2009).
In all, about 280,000 compounds went through this assay and about 540 (0.19%) were called active. This list was built around the results that the source calls inconclusive (neither active nor inactive); the mix of calls is not that of the screen. Calls come from the whole dose curve; as a rule, active = well fitted activation curve with a large enough effect; inconclusive = small, poorly fitted or top-dose-only effect; inactive = flat fitted curve, though single readings scatter. Potencies beside an inconclusive call are fits to weak or partial responses and may not hold up.

Experiment: Quantitative High-Throughput Screen for Regulators of Epigenetic Control; note: nearly all actives have a fitted effect of over 60% in size; for GFP activation: % of control where 0% means no effect
Details: murine LDR cells, GFP reporter derepression, 30 h; GFP activation: at 53.9 µM (top of the series)
In short: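 Derepression of a silenced CMV-GFP reporter in murine LDR cells is scored by enumerating GFP-positive cells with a laser-scanning microplate cytometer after 30 hours of treatment at 37 C.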
Potency is the fitted concentration of half-maximal effect; tags give direction and shape of the fitted curve.

**Q.** With `N#Cc1c(C(F)(F)F)cc(-c2cccs2)nc1SCC(=O)Nc1ccc(Cl)cc1` as the compound, how does the Potency read?
**A.** The Potency was active: 10 µM.

**Q.** For `CCOCCCNC(=O)c1c(NC(=O)c2cc(=O)c3cc(C)c(C)cc3o2)sc2c1CCC2`, which Potency is on record?
**A.** The Potency was inconclusive: 35.5 µM [activator, single point].

**Q.** With `Cc1ccc(S(=O)(=O)c2cn(C)c3cc(N4CCCC4)c(F)cc3c2=O)c(C)c1` as the compound, how does the “GFP activation” value read?
**A.** The value was inactive: -1.23%.

**Q.** Which Potency does the source give for `CCn1cc(NC(=O)CCl)c(C)n1` here?
**A.** The Potency was inconclusive: 22.4 µM [activator, single point].

**Q.** For `N#Cc1ccc(C(=O)Nc2ccc(Cl)c(-c3nc4cc(Cl)ccc4o3)c2)c(F)c1`, which Potency is on record?
**A.** Its Potency is inconclusive: 35.5 µM [activator, single point].

**Q.** With `O=C(CSc1nnc(-c2ccc([N+](=O)[O-])cc2)o1)Nc1ccccn1` as the compound, how does the Potency read?
**A.** The Potency was inconclusive: 20 µM [activator, single point].

**Q.** Which Potency does the source give for `O=C(NC1CCCC1)C(c1ccsc1)N(Cc1ccco1)C(=O)Cc1cccs1` (stereo not given) here?
**A.** The Potency was inconclusive: 14.1 µM [activator, single point].

**Q.** Which Potency does the source give for `CC1=CC(=C(C#N)c2nc3ccccc3s2)C=C(C)N1CC1CCCO1` (stereo not given) here?
**A.** The Potency was inconclusive: 31.6 µM [activator, single point].

**Q.** For `CCOc1nnc(C)c2c(C)n(-c3cccc(Cl)c3)nc12`, which Potency is on record?
**A.** The Potency was inconclusive: 25.1 µM [activator, single point].

**Q.** Which “GFP activation” value does the source give for `CCc1nc2ccc(C(=O)NCCc3ccc(SC)cc3)cc2nc1CC` here?
**A.** The value was inactive: 3.43%.

**Q.** Which Potency does the source give for `COc1ccc(C2CC(=O)c3cc(-c4nc(-c5ccc(Cl)cc5)cs4)c(=O)[nH]c3C2)cc1` (stereo not given) here?
**A.** The Potency was inconclusive: 35.5 µM [activator, single point].

**Q.** Which Potency does the source give for `Oc1cccc2c(NC(=S)Nc3ccc(SC(F)F)cc3)cccc12` here?
**A.** The Potency was inconclusive: 35.5 µM [activator, single point].

**Q.** For `COc1ccc(NC(=O)C2CCN(C(=O)c3sc4nc[nH]c(=O)c4c3C)CC2)c(OC)c1`, which “GFP activation” value is on record?
**A.** Its value is inactive: 0.833%.

**Q.** For `CCOn1c(=O)c(C)[n+]([O-])c2ccccc21`, which Potency is on record?
**A.** Its Potency is active: 20 µM.

**Q.** Which Potency does the source give for `O=C(COC(=O)c1ccc2c(c1[N+](=O)[O-])C(=O)c1ccccc1C2=O)NC1CC1` here?
**A.** The Potency was inconclusive: 22.4 µM [activator, single point].

**Q.** For `Cc1cccc(C)c1OCC(=O)Nc1nonc1-c1ccc(Br)cc1`, which “GFP activation” value is on record?
**A.** Its value is inactive: -1.74%.

**Q.** Which Potency does the source give for `OCc1cc([C@@H](O)CNCCCCCCOCCCCc2ccccc2)ccc1O` here?
**A.** The Potency was inconclusive: 2.24 µM [activator, partial curve].

**Q.** Which Potency does the source give for `CCOC(=O)N1CCc2c(sc3c2c(=O)n(Cc2ccccc2)c(=O)n3CC(=O)Nc2c(C)cccc2C)C1` here?
**A.** Its Potency is inconclusive: 5.62 µM [activator, single point].

**Q.** With `N/C(=N\NC(=O)c1sccc1OCc1ccc(Cl)cc1Cl)c1ccccn1` as the compound, how does the Potency read?
**A.** The Potency was inconclusive: 35.5 µM [activator, single point].

**Q.** With `COc1cc(N2CCCC2)c(OC)cc1/C=C(/C#N)c1cccc(F)c1` as the compound, how does the Potency read?
**A.** The Potency was active: 3.16 µM.

**Q.** For `CN(C)C(=S)N=Nc1[nH]c2ccccc2c1O`, which Potency is on record?
**A.** Its Potency is inconclusive: 6.31 µM [activator, single point].

**Q.** With `C/C(=N\NC(=O)c1sccc1-n1cccc1)c1cccs1` as the compound, how does the Potency read?
**A.** The Potency was inconclusive: 4.47 µM [activator, partial curve].

**Q.** With `N#C/C(=C\c1c(Oc2ccc(Br)cc2)nc2ccccn2c1=O)c1nc2ccccc2s1` as the compound, how does the Potency read?
**A.** Its Potency is inconclusive: 31.6 µM [activator, single point].

**Q.** For `COc1ccc(CCN2CCC(CNC(=O)c3cnn(-c4ccccc4)c3C3CCN(C(=O)OC(C)(C)C)CC3)CC2)cc1`, which “GFP activation” value is on record?
**A.** Its value is inactive: -1.27%.

**Q.** For `CN(Cc1ccccc1)c1nc2c(c(=O)n(C)c(=O)n2C)n1CCSc1ncccn1`, which “GFP activation” value is on record?
**A.** Its value is inactive: 16.7%.

**Q.** With `Cc1sc2c(c1C)c(=O)n(-c1ccc(Cl)cc1)c(=O)n2Cc1c(F)cccc1Cl` as the compound, how does the Potency read?
**A.** Its Potency is inconclusive: 20 µM [activator, single point].

**Q.** For `COc1ccc(C)cc1NC(=O)Cn1cc(S(=O)(=O)Cc2ccccc2Cl)c2ccccc21`, which “GFP activation” value is on record?
**A.** The value was inactive: 0%.

**Q.** Which Potency does the source give for `CCOc1cc(CNc2ccc(O)cc2)cc(Br)c1OCc1ccccc1F` here?
**A.** The Potency was inconclusive: 22.4 µM [activator, single point].

**Q.** For `CCCC(=O)OCCNc1cc(Sc2nc3ccccc3[nH]2)c2nonc2c1[N+](=O)[O-]`, which Potency is on record?
**A.** Its Potency is inconclusive: 5.62 µM [activator, single point].

**Q.** For `CCOC(=O)c1ccc(N2C(=O)c3n[nH]c(-c4ccco4)c3C2c2ccc(F)cc2)cc1` (stereo not given), which “GFP activation” value is on record?
**A.** Its value is inactive: 14.9%.

**Q.** With `C[C@]12CCC(=O)C=C1CCC1C2C(O)C[C@]2(C)C1CC[C@]2(O)C(=O)CO` (stereo not given in full) as the compound, how does the “GFP activation” value read?
**A.** The value was inactive: 0%.

**Q.** For `NC(=S)NNc1cccc2cccnc12`, which Potency is on record?
**A.** Its Potency is inconclusive: 5.62 µM [activator, single point].

**Q.** With `CCOC(=O)C1C(=O)CC(C)(O)C(C(=O)OCC)C1c1ccc(OC)cc1` (stereo not given) as the compound, how does the “GFP activation” value read?
**A.** The value was inactive: 0%.

**Q.** Which Potency does the source give for `Cc1ccc2nc(/C(C#N)=C\c3ccc(Oc4ccc(C(F)(F)F)cc4[N+](=O)[O-])cc3)[nH]c2c1` here?
**A.** The Potency was inconclusive: 35.5 µM [activator, single point].

**Q.** For `COc1cccc(C(Nc2ccccn2)c2oc(CO)cc(=O)c2O)c1` (stereo not given), which “GFP activation” value is on record?
**A.** The value was inactive: 0.964%.

**Q.** Which “GFP activation” value does the source give for `COc1ccc(Cn2c(O)c(/C=N/NC(=O)c3cccnc3)c3ccccc3c2=O)cc1` here?
**A.** Its value is inactive: -2.25%.

**Q.** For `Nc1c(C(=O)Nc2ccc(Br)cc2)sc2nc(-c3ccncc3)ccc12`, which Potency is on record?
**A.** Its Potency is inconclusive: 20 µM [activator, single point].

**Q.** With `CN(C)C(=O)c1c(NC(=O)c2ccco2)sc2c1CCCCC2` as the compound, how does the “GFP activation” value read?
**A.** Its value is inactive: -1.04%.

**Q.** With `Nc1nc(Nc2ccccc2)nc2ccccc12` as the compound, how does the “GFP activation” value read?
**A.** Its value is inactive: -1.03%.

**Q.** Which Potency does the source give for `O=C(NNC1CC(=O)N(c2ccc(Br)cc2)C1=O)c1cccnc1` (stereo not given) here?
**A.** Its Potency is inconclusive: 2.82 µM [activator, partial curve].

**Q.** Which “GFP activation” value does the source give for `O=C(Nc1ccc2oc(-c3cccc(Cl)c3Cl)nc2c1)c1cccc(Br)c1` here?
**A.** Its value is inactive: 0%.

**Q.** With `O=C(NCc1ccco1)c1ccc(Cn2c(=O)c3sccc3n(Cc3cccc(F)c3)c2=O)cc1` as the compound, how does the Potency read?
**A.** The Potency was inconclusive: 35.5 µM [activator, single point].

**Q.** With `CC(C)CNS(=O)(=O)c1ccc(NC(=O)Cn2nc(-c3ccc(F)cc3)ccc2=O)cc1` as the compound, how does the Potency read?
**A.** The Potency was inconclusive: 6.31 µM [activator, single point].

**Q.** With `C(=N\Nc1nc2ccccc2[nH]1)/c1cccs1` as the compound, how does the Potency read?
**A.** Its Potency is inconclusive: 3.55 µM [activator, single point].

**Q.** With `CC1=CC(C)(C)Nc2ccc(OC(=O)CN3C(=O)c4ccccc4C3=O)cc21` as the compound, how does the Potency read?
**A.** Its Potency is inconclusive: 8.91 µM [activator, partial curve].
